# The campaign covered roughly 39,000 compounds. About 220 (0.56%) showed activity. The list shows a part of the results.
# Test system: Escherichia coli K-12 BW25113
# Test: relative growth (OD600 normalised to plate interquartile mean) (fraction); higher = less growth inhibition, active = 0.2 or less
# Conditions: 50 µM; LB; incubation time: overnight (16-24 h)
# 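Also: static incubation at 37 °C against the wild-type strain, values averaged over two biological replicates.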
row,Compound,relative growth
1,C[C@@H]1CN([C@H](C)CO)C(=O)CCCn2cc(nn2)CO[C@@H]1CN(C)C(=O)Nc1cccc(Oc2ccccn2)c1,inactive: 0.982
2,C[C@@H]1CN([C@H](C)CO)C(=O)c2cc(NC(=O)Nc3ccc(C(F)(F)F)cc3)ccc2O[C@@H](C)CCCCO[C@H]1CN(C)S(=O)(=O)c1cccs1,inactive: 1.05
3,O=C(C[C@H]1C[C@H]2c3cc(NC(=O)C4CCOCC4)ccc3O[C@H]2[C@H](CO)O1)NCc1cc(F)ccc1F,inactive: 0.996
4,C[C@H](CO)N1C[C@H](C)[C@@H](CN(C)C(=O)Nc2ccc(C(F)(F)F)cc2)OCCCC[C@H](C)Oc2ccc(NC(=O)NC3CCCCC3)cc2C1=O,inactive: 1.04
5,Oc1cc(O)c2cc(O)c(-c3ccc(O)c(O)c3)[o+]c2c1.[Cl-],inactive: 1.14
6,CS(C)(=O)=O,inactive: 1.05
7,C[C@@H]1CN([C@@H](C)CO)C(=O)Cc2cc(NS(=O)(=O)c3ccccc3)ccc2O[C@@H]1CN(C)S(=O)(=O)c1ccccc1,inactive: 0.995
8,Cc1noc(C)c1NC(=O)N(C)C[C@@H]1OCCCC[C@H](C)Oc2ccc(NC(=O)Cc3ccccc3)cc2C(=O)N([C@H](C)CO)C[C@@H]1C,inactive: 1.01
9,C[C@H]1CN([C@@H](C)CO)C(=O)Cc2cc(NC(=O)CCN3CCOCC3)ccc2O[C@@H]1CN(C)Cc1ccc2c(c1)OCO2,inactive: 0.999
10,C[C@@H]1CN([C@H](C)CO)S(=O)(=O)c2ccc(C#CC(C)(C)O)cc2O[C@@H]1CN(C)Cc1ccc(F)cc1,inactive: 0.944
11,Cc1ccc(S(=O)(=O)Nc2ccc3c(c2)CC(=O)N([C@@H](C)CO)C[C@H](C)[C@@H](CN(C)Cc2ccc(C(F)(F)F)cc2)O3)cc1,inactive: 0.939
12,C[C@@H]1CCCCO[C@@H](CN(C)Cc2ccc(C(=O)O)cc2)[C@@H](C)CN([C@@H](C)CO)C(=O)c2cc(NS(=O)(=O)c3ccc(Cl)cc3)ccc2O1,inactive: 1.03
13,CCCCNc1ccc(C(=O)OCCN(C)C)cc1.Cl,inactive: 0.883
14,C[C@H](CO)N1C[C@H](C)[C@@H](CN(C)Cc2ccc3c(c2)OCO3)Oc2ccc(NC(=O)CCN3CCOCC3)cc2CC1=O,inactive: 0.996
15,COc1cccc(NC(=O)N(C)C[C@H]2Oc3ncc(C#Cc4cccnc4)cc3C(=O)N([C@@H](C)CO)C[C@@H]2C)c1,inactive: 0.989
16,CO[C@@H]1CN(C)C(=O)c2cc(NC(=O)c3cnccn3)ccc2OC[C@@H](C)N(CCC(F)(F)F)C[C@H]1C,inactive: 0.993
17,CC(C)NC(=O)Nc1ccc2c(c1)C(=O)N([C@H](C)CO)C[C@@H](C)[C@@H](CN(C)Cc1ccc(-c3ccccc3)cc1)O2,inactive: 0.946
18,CC(C)NC(=O)Nc1ccc2c(c1)C(=O)N([C@H](C)CO)C[C@@H](C)[C@H](CN(C)CC1CCCCC1)OCCCC[C@H](C)O2,inactive: 0.972
19,CN1CCN(C(=O)C[C@H]2C=C[C@@H](NS(=O)(=O)c3cccc(F)c3)[C@H](CO)O2)CC1,inactive: 0.999
20,CN(C)C(=O)CSc1nnc(N)s1,inactive: 0.921

row,Compound,relative growth
1,CN1CC[C@@]2(C(=O)N3CCOCC3)CCN(S(C)(=O)=O)CC[C@H]12,inactive: 1.01
2,C[C@@H]1CCCCO[C@H](CN(C)C(=O)NC2CCCCC2)[C@@H](C)CN([C@@H](C)CO)C(=O)c2cc(NC(=O)Cc3ccccc3)ccc2O1,inactive: 1.02
3,O=C(NCCCN1CCOCC1)[C@H]1N[C@H]2c3ccc(C4=CCCCC4)c(=O)n3C[C@H]2[C@@H]1CO,inactive: 0.98
4,CN(C)C(=O)CN1CCC2(CC1)CN(CCn1cccn1)C(=O)CO2,inactive: 0.959
5,COc1ccc(NC(=O)Nc2ccc3c(c2)CC(=O)N([C@H](C)CO)C[C@@H](C)[C@@H](CN(C)C(=O)Nc2cccc4ccccc24)O3)cc1,inactive: 1.02
6,C[C@@H]1CCCCO[C@H](CN(C)S(=O)(=O)c2ccc(F)cc2)[C@@H](C)CN([C@H](C)CO)C(=O)c2cc(NC(=O)Nc3ccc4c(c3)OCO4)ccc2O1,inactive: 0.977
7,COC(=O)CCCCCCC(=O)NN,inactive: 0.995
8,C[C@H](CO)N1C[C@H](C)[C@H](CN(C)Cc2ccc(Oc3ccccc3)cc2)Oc2ccc(NC(=O)C3CC3)cc2CC1=O,inactive: 0.983
9,CC(C)NC(=O)N(C)C[C@@H]1Oc2ccc(NC(=O)NC3CCCCC3)cc2CC(=O)N([C@H](C)CO)C[C@@H]1C,inactive: 1
10,O=c1cc[nH]c(C(F)(F)F)n1,inactive: 1
11,C[C@@H]1CCCCO[C@H](CN(C)C(=O)Nc2ccc(C(F)(F)F)cc2)[C@H](C)CN([C@@H](C)CO)C(=O)c2cc(NC(=O)Nc3ccc(C(F)(F)F)cc3)ccc2O1,inactive: 0.993
12,Cc1ccc(S(=O)(=O)N(C)C[C@H]2Oc3c(NS(C)(=O)=O)cccc3C(=O)N([C@H](C)CO)C[C@H]2C)cc1,inactive: 0.995
13,C[C@@H]1CN([C@@H](C)CO)C(=O)c2cc(NC(=O)Nc3cccc4ccccc34)ccc2O[C@@H](C)CCCCO[C@H]1CN(C)C(=O)Nc1ccccc1,inactive: 1
14,Cc1noc(C)c1S(=O)(=O)Nc1ccc2c(c1)C(=O)N([C@@H](C)CO)C[C@H](C)[C@@H](CN(C)S(=O)(=O)c1ccc(Cl)cc1)O2,inactive: 0.982
15,Cc1ccc(S(=O)(=O)N(C)C[C@@H]2Oc3ccc(NC(=O)Nc4ccc(C(F)(F)F)cc4)cc3C(=O)N([C@H](C)CO)C[C@@H]2C)cc1,inactive: 1.03
16,C[C@H](CO)N1C[C@H](C)[C@H](CN(C)Cc2ccc(C(=O)O)cc2)OCCCC[C@H](C)Oc2ccc(NC(=O)Nc3ccccc3)cc2C1=O,inactive: 1.03
17,C[C@H]1CCCCO[C@H](CN(C)C(=O)NC2CCCCC2)[C@@H](C)CN([C@@H](C)CO)C(=O)c2cc(NS(=O)(=O)c3cccs3)ccc2O1,inactive: 0.996
18,C[C@@H]1CN([C@@H](C)CO)C(=O)c2cccc(NS(C)(=O)=O)c2O[C@@H]1CN(C)Cc1ccc(C(=O)O)cc1,inactive: 0.997
19,Cc1cc(C(=O)Nc2cccc3c2O[C@@H](CN(C)C(=O)Nc2ccc4c(c2)OCO4)[C@H](C)CN([C@H](C)CO)C3=O)n(C)n1,inactive: 0.991
20,C[C@@H]1CN([C@H](C)CO)C(=O)c2cc(NC(=O)Cc3ccccc3)ccc2O[C@@H](C)CCCCO[C@H]1CN(C)C(=O)Nc1cccc2ccccc12,inactive: 1.01

row,Compound,relative growth
1,C[C@@H]1CN([C@@H](C)CO)C(=O)c2cc(NS(=O)(=O)c3cn(C)cn3)ccc2O[C@@H]1CN(C)Cc1ccc(C(=O)O)cc1,inactive: 0.977
2,C[C@H](CO)N1C[C@H](C)[C@H](CN(C)C(=O)Nc2ccc3c(c2)OCO3)Oc2ccc(NC(=O)CCCN(C)C)cc2C1=O,inactive: 1.03
3,COc1ccc(S(=O)(=O)N(C)C[C@H]2Oc3ccc(NC(=O)C4CC4)cc3C(=O)N([C@H](C)CO)C[C@H]2C)cc1,inactive: 0.999
4,Cc1noc(C)c1NC(=O)Nc1ccc2c(c1)C(=O)N([C@@H](C)CO)C[C@H](C)[C@H](CN(C)Cc1ccc(C(=O)O)cc1)OCCCC[C@H](C)O2,inactive: 1.01
5,COc1ccc(NC(=O)N(C)C[C@@H]2OCCCC[C@@H](C)Oc3ccc(NS(=O)(=O)c4ccc(C)cc4)cc3C(=O)N([C@H](C)CO)C[C@H]2C)cc1,inactive: 1.01
6,O=C(C[C@@H]1C=C[C@@H](NC(=O)Cc2ccccn2)[C@H](CO)O1)NCCCN1CCOCC1,inactive: 0.906
7,C[C@@H]1CCCCO[C@H](CN(C)C(=O)CCC(F)(F)F)[C@H](C)CN([C@@H](C)CO)C(=O)c2cc(NS(=O)(=O)c3ccccc3)ccc2O1,inactive: 0.994
8,CC(C)NC(=O)N(C)C[C@H]1Oc2c(NS(=O)(=O)c3ccccc3)cccc2C(=O)N([C@H](C)CO)C[C@H]1C,inactive: 0.94
9,CN(C)C(=O)c1cccc(-c2cccc(-c3nc(C(=O)N4CCCCC4)cc4c3[C@@H](CCO)N([S@](=O)C(C)(C)C)C4)c2)c1,inactive: 1.03
10,CO[C@H]1CN(C)C(=O)c2ccc(NC(=O)CC(F)(F)F)cc2OC[C@H](C)N(C(=O)C2CCOCC2)C[C@H]1C,inactive: 0.992
11,C[C@@H]1CCCCO[C@@H](CN(C)S(=O)(=O)c2ccc(F)cc2)[C@H](C)CN([C@@H](C)CO)C(=O)c2cc(NC(=O)Nc3ccc(F)cc3)ccc2O1,inactive: 1.04
12,O=C(NO)c1ccc(C(=O)N/N=C/[C@H](O)[C@@H](O)[C@H](O[C@@H]2O[C@H](CO)[C@H](O)[C@H](O)[C@H]2O)[C@H](O)CO)cc1,inactive: 0.996
13,C[C@@H]1CN([C@H](C)CO)C(=O)c2cccc(NC(=O)c3cnccn3)c2O[C@H]1CN(C)S(C)(=O)=O,inactive: 0.968
14,COCCNC(=O)C[C@H]1CC[C@H](NS(=O)(=O)c2ccc(C)cc2)[C@@H](CO)O1,inactive: 1.03
15,C[C@@H]1CN([C@H](C)CO)C(=O)c2cc(NS(=O)(=O)c3ccc(Cl)cc3)ccc2O[C@@H](C)CCCCO[C@@H]1CN(C)Cc1ccc2c(c1)OCO2,inactive: 0.958
16,O=C(CN1CCS(=O)(=O)CC1)NS(=O)(=O)c1ccccc1,inactive: 1.02
17,C[C@@H]1CN([C@@H](C)CO)C(=O)Cc2cc(NC(=O)c3ccncc3)ccc2O[C@H]1CN(C)C(=O)NC1CCCCC1,inactive: 1.01
18,C[C@H]1CN([C@@H](C)CO)C(=O)c2cc(C#CCN(C)C)cnc2O[C@H]1CN(C)C(=O)c1cnccn1,inactive: 1
19,Cc1noc(C)c1S(=O)(=O)N(C)C[C@H]1OCc2cn(nn2)CCCC(=O)N([C@H](C)CO)C[C@H]1C,inactive: 1

# From the supplement of paper PMC9446081
